{"source": "paper PMC12136788", "binders": {"B1": {"name": "chrX:71549762:71549763:+_ENSMUSG00000019087_ENSMUST00000019231|mus_mus|mus_mus_mus_hu_False|8_98 (ssRNA)", "RNA": "GGGAGUUCUACAGUCCGACGAUCAAACCCGUGUACUCACUCUUAACAGCACAACAUCACCAGAAAACGAUAACGACAGCCAAGCAGGACAGACAGUUAAGUAGUACUUCCACACUCCCAAACUCAGAGGAACCUCAAACCUUACAACAGAGGAUUGAGCAUCA"}, "B2": {"name": "chr1:201104638:201104639:-_ENSG00000116857_ENST00000367334|hu_hu|motif|central (ssRNA)", "RNA": "GGGAGUUCUACAGUCCGACGAUCAGAGAUCAGAGACCACAUCCCUCUUCCCUAAUCAAAAUAGCCAAGUACAACAUUUCGGAAGUUAGGGAGAAGGAGGAAAAAUGCCACAGGCUUUUAAAGGGAAGACUGGAACCGAGGGAACAACAGAGGAUUGAGCAUCA"}, "B3": {"name": "chr12:28025581:28025582:-_ENSMUSG00000063632_ENSMUST00000079063|mus_mus|motif|central (ssRNA)", "RNA": "GGGAGUUCUACAGUCCGACGAUCUUUUUAAAUCUCUUAAGAAAAAAAAAUCAACUCCCUAGAGUAACAGUUGUGCCGUCGGAAGGGUCCUCUGCCGAUGUCUUUCAGACUUCAAAGAGCCACAAGCUUCAAACAGCGCCUUCCCAACAGAGGAUUGAGCAUCA"}, "B4": {"name": "chr7:141438946:141438947:+_ENSG00000106028_ENST00000265304|hu_mus|hu_hu_hu_mus_True|1_18 (ssRNA)", "RNA": "GGGAGUUCUACAGUCCGACGAUCGACGAAAUACCUGUAACACAGGUCUUCGAAACAUGGCUUCUGUUUUUCUUACAACCUAAUCUUUAGGCUUUUCCUAAAGGAAAGAAAGAAAAGGCCCAGCCACUAAAUCAAGAACUUCCGCAACAGAGGAUUGAGCAUCA"}, "B5": {"name": "21830776_21831005_918_3pUTR_ENSMUSG00000003410_ENSMUST00000003501|mouse|control|control (ssRNA)", "RNA": "GGGAGUUCUACAGUCCGACGAUCCCUUGAUGGCCUCCUCUGCCUCGAUCCUCUUGUCAAAGCGGAUGAAUCCCACACCCCGAGAGACACCUGUGGCCUGGUCCAGCAGGAUUCUGGAAGUGAUGAUUCGGCCGUACUGGGAGACAACAGAGGAUUGAGCAUCA"}, "B6": {"name": "chr17:65740002:65740003:+_ENSG00000130935_ENST00000581375|hu_hu|hu_hu_hu_mus_False|48_78 (ssRNA)", "RNA": "GGGAGUUCUACAGUCCGACGAUCAACAAAUCUUUCUUCCCUGGACGAACAGGAAGACAUAAAAGAGAAAAAAUAUAUAUCCAUCAAGGAGAAUUGAGUGGCCACACCUUUACUCCCAGCACUUUGGGAGGUGGAUCUCUGAGUCAACAGAGGAUUGAGCAUCA"}, "B7": {"name": "chr9:33280828:33280829:+_ENSG00000086065_ENST00000223500|hu_mus|FALSE|FALSE (ssRNA)", "RNA": "GGGAGUUCUACAGUCCGACGAUCAGUCCCAGAAUACUUCUCUUGUUGUUUCACAUCACGUGCUGGAAUGUUGUAAGUCUACGAAGCGGGAAUCUGCGGCAGUCCAAAUUCAUCCACCAGCACGCCAUCCUUGUUUUUUGUGUCCAACAGAGGAUUGAGCAUCA"}, "B8": {"name": "chr12:100720429:100720430:+_ENSG00000136021_ENST00000360820|hu_hu|FALSE|FALSE (ssRNA)", "RNA": "GGGAGUUCUACAGUCCGACGAUCGAAGGGUAGGAUAUCAUCAAGUACAAACCACUUAUCCAAGUAUUCCAAAAUCUUUCCUAAGCACACUAAUGAAUUUACACGAACCGCAAGGGAAGAUGUUUGUAGACAAGCAUUUUUAAUCAACAGAGGAUUGAGCAUCA"}, "B9": {"name": "27456574_27456893_3519_CDS_ENSG00000084774_ENST00000264705|human|control|control (ssRNA)", "RNA": "GGGAGUUCUACAGUCCGACGAUCGGCAUCCACGUCAAUCUCCUUAGCCUCCUGGAUGAACUUGGAGAUGACCACGGGAUGCUCUUUGGAGACGGCUGCUGCGCUGCUCAGGAAGCGCUCCAGGUCUCCAUCCGUGUAGGCCACCAACAGAGGAUUGAGCAUCA"}, "B10": {"name": "chr15:99827826:99827827:+_ENSMUSG00000023025_ENSMUST00000100206|mus_mus|FALSE|FALSE (ssRNA)", "RNA": "GGGAGUUCUACAGUCCGACGAUCAUUCAUAGCAGCAGCAUUUGUUUUGUAAGAUCCUGGUGAACUAAAGCCAUUCACAAAACUACCAUUGGGAAAGGGAGCCAGUGGUGUUUCAAAGUAAGGUGCAGGACUUGGAGACCAAGACAACAGAGGAUUGAGCAUCA"}, "B11": {"name": "chr1:187239687:187239688:+_ENSMUSG00000026615_ENSMUST00000046514|mus_mus|motif|central (ssRNA)", "RNA": "GGGAGUUCUACAGUCCGACGAUCCCAGGAGCACUGGUAUGCAAACUGCUUUUCUCCUGGUGUCUUGGGAUCUUCAAAAACGGUUUCACACAUUUUGGAGAAAUUCUGGCCUAAAUGGUGUGAUGUUGCUCCCUGAAUGGCGCGCAACAGAGGAUUGAGCAUCA"}, "B12": {"name": "27957480_27965475_398_CDS_ENSG00000134014_ENST00000521015|human|control|control (ssRNA)", "RNA": "GGGAGUUCUACAGUCCGACGAUCCUGGGUGGAAUACUCAAAAUCAGAAUCAGGUCCACCAGGGCAGUAUACACAUAUAUUUCCUGUAAAACUGAUGUGUGGACAUCUGUGGGGUUUGCACAUCACAGCCACGACAGCAAUCCCCAACAGAGGAUUGAGCAUCA"}, "B13": {"name": "chr8:101271117:101271118:-_ENSG00000034677_ENST00000519449|hu_hu|FALSE|FALSE (ssRNA)", "RNA": "GGGAGUUCUACAGUCCGACGAUCAUAAUCACUGGAACCAUGACUACAAGAAGUUUUCAUGCUUUCUAGGUCAGAACAACUAAAUUCAGAAAAAUGACUAGAGUGAGAAUCUGCUACAGAAGGCAUACUGUCACUGAGGGAUGGCAACAGAGGAUUGAGCAUCA"}, "B14": {"name": "43502077_43507884_1890_CDS_ENSMUSG00000038546_ENSMUST00000144326|mouse|control|control (ssRNA)", "RNA": "GGGAGUUCUACAGUCCGACGAUCUAAGCUGAAUGCGUCCUUCAGCAUUUUCUUAUUUGCUGUGUUCUUGCCACAUUCUCUCCUCAGCUGCUCACUCAUGGCUUGUAGCUCUCGGCCAAAGUGAAUCAUCCUCUCUAUGGCAGCCAACAGAGGAUUGAGCAUCA"}}, "note": "The list shows a part of the results."}
{"biological_target": "T1, UNK ZnF1-3 (human, UniProt Q9C0B0 31-174)", "T1 sequence": "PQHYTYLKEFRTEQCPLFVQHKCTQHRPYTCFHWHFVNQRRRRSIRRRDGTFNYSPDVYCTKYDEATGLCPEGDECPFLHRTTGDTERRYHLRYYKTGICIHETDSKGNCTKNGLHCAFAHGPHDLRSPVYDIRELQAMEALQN", "test": "nsRBNS (natural sequence RNA bind-n-seq); RBNS binding buffer (assumed for nsRBNS): 25 mM Tris pH 7.5, 150 mM KCl, 3 mM MgCl2, 0.01% Triton X-100, 500 ug/ml BSA, 20 U/ml SUPERase-In, 4 C; UNK is unkempt and MSI1 is Musashi-1; names of the RNAs are library labels; protein concentration not given here; high values mean tight binding", "units": {"binding signal": "enrichment R"}}
{"binder": "B1", "binding signal": 1.86}
{"binder": "B2", "binding signal": 2.05}
{"binder": "B3", "binding signal": 0.418}
{"binder": "B4", "binding signal": 0.796}
{"binder": "B5", "binding signal": 0.954}
{"binder": "B6", "binding signal": 1.56}
{"binder": "B7", "binding signal": 0.784}
{"binder": "B8", "binding signal": 0.87}
{"binder": "B9", "binding signal": 0.534}
{"binder": "B10", "binding signal": 1.6}
{"binder": "B11", "binding signal": 0.719}
{"binder": "B12", "binding signal": 1.03}
{"binder": "B13", "binding signal": 1.2}
{"binder": "B14", "binding signal": 0.489}
